# Experimental data: the supplement of paper PMC8728848
# The other results are listed elsewhere or left out.
# B1: DBA (Dolichos biflorus) (protein)
# chain: ANIQSFSFKNFNSPSFILQGDATVSSGKLQLTKVKENGFPLRFPSGRAFYSSPIQIYDKFTGAVASWATSFTVKISAPSKASFADGIAFALVPVGSEPRRNGGYLGVFDSDVYNNSAQTVAVEFDTLSNSGWDPSMKHIGIDVNSIKSIATVSWDLANGENAEILITYNAATSLLVVSLVHPSRRTSYILSERVDITNELPEYVGVGFSATTGLSEGYIETHDVLSWSFASRLPDDSTAEPLDLARYLVRNVL
# Legend:
# Assay in all cases: glycan array binding signal (z-score within array); higher = stronger binding
# Settings in all cases: glycan notation: IUPAC condensed, linker removed
# [1] = target: Gal(b1-4)GlcNAc(b1-3)Gal(b1-4)GlcNAc(b1-3)Gal(b1-4)GlcNAc(b1-3)Gal(b1-4)GlcNAc(b1-2)Man(a1-3)[Gal(b1-4)GlcNAc(b1-3)Gal(b1-4)GlcNAc(b1-3)Gal(b1-4)GlcNAc(b1-3)Gal(b1-4)GlcNAc(b1-2)Man(a1-6)]Man(b1-4)GlcNAc(b1-4)GlcNAc
# Procedure, shortened: (§1)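 The Consortium for Functional Glycomics database supplied 3228 glycan arrays, of which those lacking an available protein sequence were dropped. The binding signal, a within-array Z-score, was averaged across arrays of the same protein sequence and across linkers. Negative scores can be read as non-binding.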
# [2] = target: Gal(b1-4)GlcNAc(b1-3)Gal(b1-4)GlcNAc(b1-3)Gal(b1-4)GlcNAc(b1-3)Gal(b1-4)GlcNAc(b1-2)Man(a1-3)[Gal(b1-4)GlcNAc(b1-3)Gal(b1-4)GlcNAc(b1-3)Gal(b1-4)GlcNAc(b1-3)Gal(b1-4)GlcNAc(b1-2)Man(a1-6)]Man(b1-4)GlcNAc(b1-4)[Fuc(a1-6)]GlcNAc
# Procedure, shortened: as §1
# [3] = target: Gal(b1-4)GlcNAc(b1-3)Gal(b1-4)GlcNAc(b1-3)Gal(b1-4)GlcNAc(b1-3)Gal(b1-4)GlcNAc(b1-2)[Gal(b1-4)GlcNAc(b1-3)Gal(b1-4)GlcNAc(b1-3)Gal(b1-4)GlcNAc(b1-3)Gal(b1-4)GlcNAc(b1-6)]Man(a1-6)[Gal(b1-4)GlcNAc(b1-3)Gal(b1-4)GlcNAc(b1-3)Gal(b1-4)GlcNAc(b1-3)Gal(b1-4)GlcNAc(b1-2)Man(a1-3)]Man(b1-4)GlcNAc(b1-4)[Fuc(a1-6)]GlcNAc
# Procedure, shortened: as §1
# [4] = target: Gal(b1-4)GlcNAc(b1-3)Gal(b1-4)GlcNAc(b1-3)Gal(b1-4)GlcNAc(b1-3)Gal(b1-4)GlcNAc(b1-3)Gal(b1-4)GlcNAc(b1-2)Man(a1-3)[Gal(b1-4)GlcNAc(b1-3)Gal(b1-4)GlcNAc(b1-3)Gal(b1-4)GlcNAc(b1-3)Gal(b1-4)GlcNAc(b1-3)Gal(b1-4)GlcNAc(b1-2)Man(a1-6)]Man(b1-4)GlcNAc(b1-4)GlcNAc
# Procedure, shortened: as §1
# [5] = target: Gal(b1-4)GlcNAc(b1-3)Gal(b1-4)GlcNAc(b1-3)Gal(b1-4)GlcNAc(b1-3)Gal(b1-4)GlcNAc(b1-3)Gal(b1-4)GlcNAc(b1-2)Man(a1-3)[Gal(b1-4)GlcNAc(b1-3)Gal(b1-4)GlcNAc(b1-3)Gal(b1-4)GlcNAc(b1-3)Gal(b1-4)GlcNAc(b1-3)Gal(b1-4)GlcNAc(b1-2)Man(a1-6)]Man(b1-4)GlcNAc(b1-4)[Fuc(a1-6)]GlcNAc
# Procedure, shortened: as §1
# [6] = target: Gal(b1-4)GlcNAc(b1-3)Gal(b1-4)GlcNAc(b1-3)Gal(b1-4)GlcNAc(b1-3)Gal(b1-4)GlcNAc(b1-3)Gal(b1-4)GlcNAc(b1-2)[Gal(b1-4)GlcNAc(b1-3)Gal(b1-4)GlcNAc(b1-3)Gal(b1-4)GlcNAc(b1-3)Gal(b1-4)GlcNAc(b1-3)Gal(b1-4)GlcNAc(b1-6)]Man(a1-6)[Gal(b1-4)GlcNAc(b1-3)Gal(b1-4)GlcNAc(b1-3)Gal(b1-4)GlcNAc(b1-3)Gal(b1-4)GlcNAc(b1-3)Gal(b1-4)GlcNAc(b1-2)Man(a1-3)]Man(b1-4)GlcNAc(b1-4)[Fuc(a1-6)]GlcNAc
# Procedure, shortened: as §1
# [7] = target: Gal(b1-4)GlcNAc(b1-3)Gal(b1-4)GlcNAc(b1-3)Gal(b1-4)GlcNAc(b1-3)Gal(b1-4)GlcNAc(b1-3)Gal(b1-4)GlcNAc(b1-3)Gal(b1-4)GlcNAc(b1-2)Man(a1-3)[Gal(b1-4)GlcNAc(b1-3)Gal(b1-4)GlcNAc(b1-3)Gal(b1-4)GlcNAc(b1-3)Gal(b1-4)GlcNAc(b1-3)Gal(b1-4)GlcNAc(b1-3)Gal(b1-4)GlcNAc(b1-2)Man(a1-6)]Man(b1-4)GlcNAc(b1-4)GlcNAc
# Procedure, shortened: as §1
# [8] = target: Gal(b1-4)GlcNAc(b1-3)Gal(b1-4)GlcNAc(b1-3)GalNAc
# Procedure, shortened: as §1
# [9] = target: Gal(b1-4)GlcNAc(b1-3)Gal(b1-4)GlcNAc(b1-3)[Gal(b1-4)GlcNAc(b1-3)Gal(b1-4)GlcNAc(b1-6)]GalNAc
# Procedure, shortened: as §1
# [10] = target: Gal(b1-4)GlcNAc(b1-3)Gal(b1-4)GlcNAc(b1-6)[Gal(b1-3)]GalNAc
# Procedure, shortened: as §1
# [11] = target: Gal(b1-4)GlcNAc(b1-3)Gal(b1-4)[Fuc(a1-3)]GlcNAc(b1-3)Gal(b1-4)[Fuc(a1-3)]GlcNAc
# Procedure, shortened: as §1
# [12] = target: Gal(b1-4)GlcNAc(b1-3)GalNAc
# Procedure, shortened: as §1
# [13] = target: Gal(b1-4)GlcNAc(b1-3)[Fuc(a1-3)GlcNAc(b1-6)]Gal(b1-4)Glc
# Procedure, shortened: as §1
# [14] = target: Gal(b1-4)GlcNAc(b1-3)[Gal(b1-4)GlcNAc(b1-6)]Gal(b1-4)GlcNAc
# Procedure, shortened: as §1
# [15] = target: Gal(b1-4)GlcNAc(b1-3)[Gal(b1-4)GlcNAc(b1-6)]GalNAc
# Procedure, shortened: as §1
# [16] = target: Gal(b1-4)GlcNAc(b1-3)[GlcNAc(b1-6)]Gal(b1-4)GlcNAc
# Procedure, shortened: as §1
# [17] = target: Gal(b1-4)GlcNAc(b1-6)Gal(b1-4)GlcNAc
# Procedure, shortened: as §1
# [18] = target: Gal(b1-4)GlcNAc(b1-6)Gal(b1-4)GlcNAc(b1-6)GalNAc
# Procedure, shortened: as §1
# [19] = target: Gal(b1-4)GlcNAc(b1-6)GalNAc
# Procedure, shortened: as §1
binder,measurement,setting,value
B1,glycan array binding signal (z-score),[1],-0.015
same,glycan array binding signal (z-score),[2],0.067
same,glycan array binding signal (z-score),[3],0.01
same,glycan array binding signal (z-score),[4],-0.031
same,glycan array binding signal (z-score),[5],0.028
same,glycan array binding signal (z-score),[6],0.013
same,glycan array binding signal (z-score),[7],-0.183
same,glycan array binding signal (z-score),[8],0.114
same,glycan array binding signal (z-score),[9],0.076
same,glycan array binding signal (z-score),[10],0.134
same,glycan array binding signal (z-score),[11],-0.114
same,glycan array binding signal (z-score),[12],-0.144
same,glycan array binding signal (z-score),[13],-0.11
same,glycan array binding signal (z-score),[14],-0.108
same,glycan array binding signal (z-score),[15],-0.168
same,glycan array binding signal (z-score),[16],-0.133
same,glycan array binding signal (z-score),[17],-0.122
same,glycan array binding signal (z-score),[18],-0.17
same,glycan array binding signal (z-score),[19],-0.083
